In PubChem BioAssay AID2313 (Broad Institute, 2010):
The campaign covered roughly 22,000 compounds. About 460 (2.1%) were called active. The inconclusive results got no clear call from the source; some entries with a clear call stand among them for comparison.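 How the source made its calls: active means mean inhibition across valid replicates above about 65% (limit read from the data); inconclusive means mean under the limit, yet half or more replicates past it; inactive means the rest.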

Test: Shh-driven Gli reporter inhibition – luminescence, Shh-LIGHT2 cells, Gli-luciferase, primary screen (AID 2313);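 further: pathway switched on by Shh-conditioned medium diluted 1 in 25 in low serum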
Conditions: 30 h, active compounds read high

SMILES | inhibition
CCOC(=O)c1ccc(-n2c(C)cc(C=C3C(=O)NC(=S)NC3=O)c2C)cc1 | inactive: 8.95%
C[C@@H]1CCCCO[C@@H](CN(C)C(=O)Nc2ccc(C(F)(F)F)cc2)[C@@H](C)CN([C@H](C)CO)C(=O)c2cc(NS(=O)(=O)c3ccccc3)ccc2O1 | inconclusive: 63.1%
Cc1cc(C(=O)Nc2cccc3c2O[C@H](CN(C)Cc2ccc(Oc4ccccc4)cc2)[C@@H](C)CN([C@H](C)CO)C3=O)n(C)n1 | inconclusive: 62.6%
C[C@@H]1CN([C@@H](C)CO)C(=O)c2cccc(NC(=O)NC3CCCCC3)c2O[C@@H]1CN(C)CC1CCCCC1 | inactive: -35.3%
C[C@H](CO)N1C[C@H](C)[C@H](CN(C)C(=O)Nc2ccc(F)cc2)Oc2ccc(NC(=O)Nc3ccc(F)cc3)cc2C1=O | active: 107%
Cc1noc(C)c1NC(=O)N(C)C[C@@H]1Oc2ccc(NC(=O)C3CC3)cc2CC(=O)N([C@@H](C)CO)C[C@@H]1C | inconclusive: 33.1%
CC(C)NC(=O)Nc1ccc2c(c1)CC(=O)N([C@H](C)CO)C[C@@H](C)[C@H](CN(C)S(=O)(=O)c1ccccc1)O2 | inconclusive: 31.8%
NCCOc1ccc(Cl)cc1 | inconclusive: 54%
CC1(C)C2CC[C@]3(C)C(C(=O)C=C4[C@@H]5C[C@@](C)(C(=O)O)CC[C@]5(C)CC[C@]43C)[C@@]2(C)CC[C@@H]1O (some centres not stated) | active: 66.5%
C[C@H](CO)N1C[C@H](C)[C@H](CN(C)C(=O)NC2CCCCC2)Oc2ccc(NS(C)(=O)=O)cc2CC1=O | inconclusive: 28.4%
C[C@@H]1CN([C@@H](C)CO)C(=O)c2cc(NC(=O)CCN3CCOCC3)ccc2O[C@@H]1CN(C)Cc1ccccc1 | inactive: 16.2%
C=CCC1C(=O)N(S(=O)(=O)c2ccc(Cl)cc2)N=C1CCC (configuration not stated) | inconclusive: 59.4%
CC(NC(=O)CC(c1ccccc1)c1ccccc1)c1ccccc1 (configuration not stated) | inconclusive: 60.2%
C[C@H]1CN([C@@H](C)CO)C(=O)c2cccc(NC(=O)Nc3ccccc3)c2O[C@H]1CN(C)CC1CCCCC1 | inconclusive: 50.8%
CCC(C)C1NC(=O)C(CCC(=O)O)N(C)C(=O)C(C(C)C)N(C)C(=O)CNC(=O)C2CCCN2C(=O)C(Cc2ccccc2)NC(=O)C(C(C)CC)OC(=O)C(CCC(=O)O)N(C)C(=O)C(C(C)C)NC(=O)C2CCCCN2C1=O (configuration not stated) | active: 100%
COc1ccc(-n2ncc(NC(=O)Nc3ccc4c(c3)OCCCO4)c2C)cc1 | inconclusive: 53%
Cc1ccc(S(=O)(=O)Nc2cccc3c2O[C@H](CN(C)Cc2ccc(Oc4ccccc4)cc2)[C@@H](C)CN([C@@H](C)CO)C3=O)cc1 | inactive: -2.17%
C[C@H](CO)N1C[C@H](C)[C@H](CN(C)S(=O)(=O)c2ccccc2)Oc2ccc(NC(=O)CCC(F)(F)F)cc2CC1=O | inconclusive: 24.8%
C[C@]12CCC(=O)C=C1CC[C@@H]1C2[C@@H](O)C[C@@]2(C)C1CC[C@@H]2C(=O)CO (some centres not stated) | inconclusive: 64.3%

SMILES | inhibition
C[C@@H]1CCCCO[C@@H](CN(C)S(=O)(=O)c2cccs2)[C@@H](C)CN([C@H](C)CO)C(=O)c2cc(NC(=O)C3CCCCC3)ccc2O1 | inconclusive: 56.2%
CN(C)CCCN1c2ccccc2CCc2ccc(Cl)cc21 | inconclusive: 43%
C[C@@H]1O[C@@H](O[C@H]2[C@H](O)[C@@H](O[C@@H]3O[C@H](CO)[C@@H](O)[C@H](O[C@@H]4O[C@H](CO)[C@@H](O)[C@H](O)[C@H]4O)[C@H]3O)[C@H](O[C@H]3CC[C@@]4(C)C(=CC[C@@H]5C4CC[C@@]4(C)C5C[C@@H]5O[C@]6(CC[C@@](C)(CO[C@@H]7O[C@H](CO)[C@@H](O)[C@H](O)[C@H]7O)O6)[C@@H](C)[C@@H]54)C3)O[C@@H]2CO)[C@H](O)[C@H](O)[C@H]1O (some centres not stated) | active: 69.6%
Cc1ccc(S(=O)(=O)Nc2cccc3c2O[C@@H](CN(C)C(=O)Nc2cccc4ccccc24)[C@H](C)CN([C@@H](C)CO)C3=O)cc1 | inconclusive: 17.4%
CN1C(C(=O)c2ccccc2)C(=O)c2ccccc2S1(=O)=O (configuration not stated) | inactive: -10.6%
C[C@H]1CN([C@@H](C)CO)C(=O)c2cccc(NC(=O)C3CCCCC3)c2O[C@H]1CN(C)S(=O)(=O)c1ccc(Cl)cc1 | active: 98.4%
CCOC(=O)c1cnc2c(OC)cccc2c1NC1CCCCC1 | inconclusive: 62.5%
C[C@H](CO)N1C[C@H](C)[C@H](CN(C)Cc2ccc(C(=O)O)cc2)Oc2ccc(NC(=O)c3ccncc3)cc2C1=O | inactive: -46.6%
C[C@@H]1CN([C@@H](C)CO)C(=O)c2cccc(NC(=O)c3ccc(-c4nccs4)cc3)c2O[C@@H]1CN(C)Cc1ccc(Cl)c(Cl)c1 | inactive: 19.7%
N#C/C(=C/c1ccc(O)c(O)c1)C(=O)OC/C=C/c1ccccc1 | inconclusive: 60.4%
Cc1ccc(S(=O)(=O)N(C)C[C@@H]2Oc3ccc(NC(=O)C4CCCCC4)cc3CC(=O)N([C@H](C)CO)C[C@@H]2C)cc1 | inconclusive: 45.7%
C[C@@H]1CN([C@H](C)CO)C(=O)Cc2cc(NC(=O)C3CCCCC3)ccc2O[C@H]1CN(C)S(C)(=O)=O | inconclusive: 37.3%
CC(C)/C(=N/O)c1ccccc1 | inactive: -5.88%
COc1ccc(CN(C)C[C@@H]2Oc3c(NC(=O)Nc4ccccc4)cccc3C(=O)N([C@@H](C)CO)C[C@H]2C)cc1 | inactive: 5.65%
C[C@H](CO)N1C[C@H](C)[C@H](CN(C)Cc2ccc3c(c2)OCO3)Oc2ccc(NS(=O)(=O)c3ccc(F)cc3)cc2C1=O | inactive: 22.3%
C[C@@H]1CN([C@@H](C)CO)C(=O)c2cc(NC(=O)Nc3ccc(F)cc3)ccc2O[C@@H]1CN(C)Cc1ccc(Cl)c(Cl)c1 | active: 84.7%
COc1ccc(NC(=O)N(C)C[C@@H]2Oc3ccc(NS(=O)(=O)c4cn(C)cn4)cc3CC(=O)N([C@H](C)CO)C[C@H]2C)cc1 | active: 71.5%
C[C@@H]1CN([C@@H](C)CO)C(=O)c2cccc(NC(=O)c3nc4ccccc4s3)c2O[C@@H]1CN(C)CC1CC1 | inconclusive: 27.2%
